According to PubChem BioAssay AID504339 (National Center for Advancing Translational Sciences (NCATS), 2011):
About 17,000 (4.4%) of roughly 390,000 compounds were called active. The inconclusive results got no clear call from the source; some entries with a clear call stand among them for comparison. Calls come from the whole dose curve; as a rule, active = well fitted inhibition curve with a large enough effect; inconclusive = small, poorly fitted or top-dose-only effect; inactive = no such curve, though single readings can be large or run the other way. A potency beside an inconclusive call is a rough fit, not a confirmed value.
Note: nearly all actives have a fitted effect of over 50% in size.
Potency is the fitted concentration of half-maximal effect; tags give direction and shape of the fitted curve.

These compounds were tested against Lysine-specific demethylase 4A (Homo sapiens) (UniProt O75164) (assay: qHTS Assay for Inhibitors of JMJD2A-Tudor Domain). Settings: AlphaScreen JMJD2A-Tudor / H3K4me3 peptide binding; series mostly up to 114 µM.
UniProt O75164, sequence (O75164 whole entry, looked up, the tested form may be a part): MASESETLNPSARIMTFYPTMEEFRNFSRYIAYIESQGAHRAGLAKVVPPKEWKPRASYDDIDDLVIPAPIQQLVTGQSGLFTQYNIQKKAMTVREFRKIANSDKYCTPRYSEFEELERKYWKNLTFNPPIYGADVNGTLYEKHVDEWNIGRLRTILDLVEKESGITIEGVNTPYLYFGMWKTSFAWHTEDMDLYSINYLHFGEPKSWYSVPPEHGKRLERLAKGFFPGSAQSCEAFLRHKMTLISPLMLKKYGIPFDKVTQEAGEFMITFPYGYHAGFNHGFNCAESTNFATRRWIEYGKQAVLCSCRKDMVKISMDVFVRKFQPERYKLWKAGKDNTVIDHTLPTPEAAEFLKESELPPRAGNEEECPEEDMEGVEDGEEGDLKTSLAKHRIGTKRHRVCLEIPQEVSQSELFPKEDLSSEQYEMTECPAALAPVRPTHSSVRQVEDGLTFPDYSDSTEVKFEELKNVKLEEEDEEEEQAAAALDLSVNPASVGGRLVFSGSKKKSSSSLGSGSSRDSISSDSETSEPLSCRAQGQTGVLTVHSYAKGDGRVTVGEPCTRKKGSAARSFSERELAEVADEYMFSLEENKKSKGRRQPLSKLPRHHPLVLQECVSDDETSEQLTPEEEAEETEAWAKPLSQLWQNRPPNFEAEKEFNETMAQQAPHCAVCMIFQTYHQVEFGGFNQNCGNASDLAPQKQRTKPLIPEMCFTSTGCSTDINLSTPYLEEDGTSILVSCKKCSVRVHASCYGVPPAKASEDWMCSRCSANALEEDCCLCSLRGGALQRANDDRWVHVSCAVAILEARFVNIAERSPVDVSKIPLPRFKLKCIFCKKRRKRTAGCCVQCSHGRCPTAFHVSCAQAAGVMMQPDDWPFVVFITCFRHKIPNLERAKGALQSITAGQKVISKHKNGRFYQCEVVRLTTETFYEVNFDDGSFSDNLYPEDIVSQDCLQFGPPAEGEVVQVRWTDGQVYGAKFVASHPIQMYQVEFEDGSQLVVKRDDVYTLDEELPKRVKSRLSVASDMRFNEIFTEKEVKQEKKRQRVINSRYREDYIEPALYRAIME
With CCOc1ccc(CN(CCc2ccc3c(c2)OCO3)Cc2ccc(C)cc2)cc1 the Potency was active: 6.31 µM. In the case of Clc1ccc(C2NCCc3[nH]cnc32)cc1 (stereo unspecified), the Potency is reported as inconclusive: 56.2 µM [inhibitor, partial curve]. In the case of COC(=O)N(c1ccccc1)P1(=S)OCCO1, the Potency is reported as inconclusive: 89.1 µM [inhibitor, single point]. With Cc1[nH]c2ccccc2c1C1=CCNCC1 the Potency was inconclusive: 50.1 µM [inhibitor, partial curve]. In the case of CC(C)c1ccc(-n2c(O)c(/C=N/NC(=O)c3ccccc3O)c(=O)[nH]c2=S)cc1, the Potency is reported as active: 79.4 µM. With O=C1OC(c2ccc(Br)cc2)=N/C1=C\N1CC2CC(C1)c1cccc(=O)n1C2 (stereo unspecified) the Potency was inconclusive: 56.2 µM [inhibitor, partial curve, poor fit]. FC(F)(F)c1cccc(C2NCc3ccccc3-n3cccc32)c1 (stereo unspecified) was tested, and the Potency was inconclusive: 31.6 µM [inhibitor, partial curve]. For OC(CCNCCc1c[nH]c2ccccc12)C(F)(F)Cl (stereo unspecified), the Potency was “inactive”. For COc1ccccc1N1CCN(Cc2ccc(Cl)cc2Cl)CC1, the Potency was active: 22.4 µM. O=c1[nH]c(=S)n(C2CC2)c(O)c1C=NCc1cccnc1 was tested, and the Potency was active: 28.2 µM. Nc1ccc2c3c(cccc13)-c1ccccc1-2 was tested, and the Potency was “inactive”. With Cc1ccc(OCCOc2cccc(C=C3C(=O)NC(=O)NC3=O)c2)c(C)c1 the Potency was active: 35.5 µM. In the case of CCOP(=O)(/C(C#N)=C(\C)O)c1ccccc1 (stereo unspecified), the Potency is reported as inconclusive: 22.4 µM [inhibitor, full curve]. For COc1cccc(C2SCC(=O)Nc3c2c(C)nn3-c2ccc(C)c(Cl)c2)c1OC (stereo unspecified), the Potency was “inactive”. With Cn1ncnc2c(=O)n(C)c(=O)nc1-2 the Potency was “inactive”. In the case of CC1(C)OC(c2ccccc2)=C/C(=C/C=C2C(=O)NC(=S)NC2=O)O1, the Potency is reported as inconclusive: 22.4 µM [inhibitor, partial curve]. In the case of O=C1NC(=O)N(CCc2ccc(F)cc2)C(=O)/C1=C/c1ccco1, the Potency is reported as active: 39.8 µM. With O=c1c2ccc(Cl)cc2[nH]c(=S)n1-c1cccnc1 the Potency was active: 17.8 µM. In the case of C=CCn1c(O)c(/C(C)=N/NC(=S)Nc2ccccc2)c(=O)[nH]c1=O, the Potency is reported as inconclusive: 50.1 µM [inhibitor, partial curve]. CC(C)(C)c1ccc(/C=C2\Oc3cc(OC(=O)N4CCOCC4)ccc3C2=O)cc1 was tested, and the Potency was inconclusive: 50.1 µM [inhibitor, partial curve]. With O=C(Oc1ccc(C(=S)N2CCOCC2)cc1)c1ccc([N+](=O)[O-])cc1[N+](=O)[O-] the Potency was inconclusive: 56.2 µM [inhibitor, partial curve]. With COc1ccc2sc(-c3ccccc3OC)c(-c3ccc(OCCN4CCOCC4)cc3)c2c1 the Potency was inconclusive: 20 µM [inhibitor, full curve]. CC(C)(C)OC(=O)N1CC(O)CC1C(=O)OCC(=O)c1ccc(-c2ccccc2)cc1 (stereo unspecified) was tested, and the Potency was inconclusive: 31.6 µM [inhibitor, single point]. CCOc1ccc(NCc2cccn2-c2nnc(N3CCC(C(=O)NCC(C)c4ccccc4)CC3)s2)cc1 (stereo unspecified) was tested, and the Potency was inconclusive: 15.8 µM [inhibitor, full curve, poor fit]. CCCCn1c(-c2nn(C)cc2Cl)n[nH]c1=S was tested, and the Potency was active: 7.94 µM. In the case of COc1ccc(-n2c(-c3ccccc3[N+](=O)[O-])nc3ccccc3c2=O)cc1, the Potency is reported as inconclusive: 12.6 µM [inhibitor, full curve]. In the case of COc1ccc(N2C(=O)NC(=O)/C(=C/c3ccc([N+](=O)[O-])s3)C2=O)cc1, the Potency is reported as active: 56.2 µM. With CC1CN=C(Nc2ccc(N(C)C)cc2)S1 (stereo unspecified) the Potency was active: 39.8 µM. With COc1ccc(NC(=O)CCc2nc(C3=CCN(Cc4cccc(Cl)c4)CC3)no2)c(OC)c1 the Potency was inconclusive: 44.7 µM [inhibitor, partial curve]. C[n+]1c2ccccc2nc2ccc(NCCO)cc21 was tested, and the Potency was inconclusive: 22.4 µM [inhibitor, partial curve]. Cc1ccc(-c2nc(N3CCOCC3)s[n+]2-c2ccccc2)cc1 was tested, and the Potency was active: 8.91 µM. Cc1ccc(N(C)C(=O)Oc2cccc3ccc(C)nc23)cc1 was tested, and the Potency was “inactive”. With Oc1ccc(CC2CC3CCN2CC3)cc1O (stereo unspecified) the Potency was active: 28.2 µM. With O=c1[nH]c(=S)n(CCC2=CCCCC2)c(O)c1/C=N/Nc1ccccc1 the Potency was inconclusive: 89.1 µM [inhibitor, partial curve]. Cc1ccccc1OCC(=O)N1CCN(CCc2ccccn2)CC1 was tested, and the Potency was “inactive”. CC1CN(c2ccc([N+](=O)[O-])c(N3CCCCC3)c2)CCN1 (stereo unspecified) was tested, and the Potency was inconclusive: 89.1 µM [inhibitor, partial curve]. For CC(=O)OC1N=C(c2ccccc2)c2cc(Br)ccc2NC1=O (stereo unspecified), the Potency was “inactive”. For CCCN(CCC)C1CCc2ccc(O)cc2C1 (stereo unspecified), the Potency was “inactive”. O=[N+]([O-])c1c2ccccc2cc2ccccc12 was tested, and the Potency was inconclusive: 44.7 µM [inhibitor, partial curve]. For CCN(CC)c1ccc(CNCCc2ccccc2F)cc1, the Potency was inconclusive: 70.8 µM [inhibitor, partial curve, poor fit]. Cc1cc(/C=C2\C(=O)NC(=O)N(Cc3ccco3)C2=O)c(C)n1-c1ccc(O)cc1 was tested, and the Potency was inconclusive: 31.6 µM [inhibitor, full curve]. With CCOCCc1c(O)[nH]c(=S)[nH]c1=O the Potency was active: 79.4 µM. With NNC(N)=O the Potency was inconclusive: 89.1 µM [inhibitor, single point]. COC(=O)N(c1ccc(OC)cc1)P1(=S)OCCC(C)O1 (stereo unspecified) was tested, and the Potency was active: 79.4 µM. In the case of O=C(c1ccc(F)cc1)N1CCC(N2CCCCCC2)CC1, the Potency is reported as inconclusive: 2.82 µM [inhibitor, full curve, poor fit]. With Cc1ccc(OCC(=O)NCCN2CCN(C(=O)COc3ccc(C)cc3)CC2)cc1 the Potency was “inactive”. For COc1ccccc1N1CCN(Cc2ccccc2F)CC1, the Potency was active: 6.31 µM. For CN1C2CCC1C(COC(=O)c1ccccc1)C(O)C2 (stereo unspecified), the Potency was inconclusive: 89.1 µM [inhibitor, partial curve]. CN1CCN(c2ccc([N+](=O)[O-])c(N)c2)CC1 was tested, and the Potency was “inactive”. In the case of Cc1ccc(-n2c(-c3ccc([N+](=O)[O-])cc3)nc3ccccc3c2=O)cc1, the Potency is reported as inconclusive: 70.8 µM [inhibitor, single point]. In the case of CCCCC(=O)N/N=C/c1c(O)n(-c2ccccc2)c(=O)[nH]c1=O, the Potency is reported as active: 79.4 µM. For O=C(Cn1cc(C(=O)c2ccccc2)c2ccccc21)NCc1ccco1, the Potency was inconclusive: 89.1 µM [inhibitor, single point]. In the case of COc1ccc2c(c1OC)CN1CCc3cc4c(cc3[C@H]1C2)OCO4, the Potency is reported as inconclusive: 50.1 µM [inhibitor, partial curve]. With CCc1ccc(N2C(=O)NC(=O)/C(=C\c3cc(C)n(-c4cc(C(=O)O)cc(C(=O)O)c4)c3C)C2=O)cc1 the Potency was active: 50.1 µM. For Cc1c(OCC(F)(F)F)ccnc1CS(=O)c1nc2ccccc2[nH]1 (stereo unspecified), the Potency was inconclusive: 3.98 µM [inhibitor, single point]. In the case of S=c1[nH]nc(-c2ccn[nH]2)n1-c1ccccc1Cl, the Potency is reported as active: 20 µM. For COC(=O)C1=C(c2ccccc2OCc2ccccc2)C[C@@H]2CC[C@H]1N2C(=O)NC1CCN(Cc2ccccc2)CC1, the Potency was inconclusive: 63.1 µM [inhibitor, partial curve, poor fit]. For Cc1ccc(OCC(=O)N2CCN(Cc3ccc4c(c3)OCO4)CC2)cc1, the Potency was inconclusive: 0.708 µM [inhibitor, full curve, poor fit]. For COc1ccc(Cc2c(O)[nH]c(=S)[nH]c2=O)cc1, the Potency was inconclusive: 79.4 µM [inhibitor, partial curve]. For O=C(Cc1ccccc1)N1CCN(Cc2cccc(Cl)c2)CC1, the Potency was active: 3.16 µM. With O=c1[nH]c(=O)n(C2CCCCC2)c(O)c1C=Nc1ccc(N2CCOCC2)cc1 the Potency was “inactive”. For N[C@@H](CCl)C(=O)O, the Potency was inconclusive: 89.1 µM [inhibitor, partial curve]. C=CCn1c(O)c(Cc2ccc(OCC)cc2)c(=O)[nH]c1=O was tested, and the Potency was active: 31.6 µM. CCOc1cc(C=C2C(=O)NC(=S)NC2=O)ccc1O was tested, and the Potency was active: 31.6 µM. In the case of CCC1(C)OC(c2ccccc2)=C/C(=C/C=C2C(=O)NC(=O)NC2=O)O1 (stereo unspecified), the Potency is reported as inconclusive: 2.24 µM [inhibitor, full curve, poor fit]. Oc1ccccc1O was tested, and the Potency was active: 39.8 µM. In the case of O=C(Cc1ccccc1)N1CCN(Cc2cccnc2)CC1, the Potency is reported as active: 4.47 µM. With CCC1Nc2ncnc(N3CCN(c4ccccn4)CC3)c2N(Cc2ccc(Br)cc2)C1=O (stereo unspecified) the Potency was active: 79.4 µM. CCN(CCO)c1ccc(N=Cc2c(O)n(C)c(=S)[nH]c2=O)cc1 was tested, and the Potency was inconclusive: 25.1 µM [inhibitor, partial curve]. With COc1ccc(Nc2c(-c3cc(Br)ccc3O)nc3ncccn23)cc1OC the Potency was active: 20 µM. For Cc1ccc(NCc2cccn2-c2nnc(N3CCC(C(=O)NCc4ccc(OC(C)C)cc4)CC3)s2)cc1, the Potency was inconclusive: 20 µM [inhibitor, full curve, poor fit]. With O=C1NC(=O)N(Cc2ccc(F)cc2)C(=O)/C1=C\c1ccc([N+](=O)[O-])s1 the Potency was active: 20 µM. For O=C(NCc1nnc(SCC(=O)N2CCN(c3ccccc3)CC2)o1)c1ccco1, the Potency was inconclusive: 56.2 µM [inhibitor, partial curve]. With COc1cc(OC)c(OC)cc1CNCCc1ccc(F)cc1 the Potency was active: 63.1 µM. In the case of COC(=O)C1=C(c2cccc(C#N)c2)C[C@@H]2CC[C@H]1N2C(=O)NC(C)C, the Potency is reported as inconclusive: 89.1 µM [inhibitor, partial curve]. CCOc1cc2[nH]c(=S)n(CCCC(=O)N3CCC4(CC3)OCCO4)c(=O)c2cc1OCC was tested, and the Potency was inconclusive: 25.1 µM [inhibitor, partial curve, poor fit].
